Data from patent EP4732851A9, “LINKER, ANTIBODY-DRUG CONJUGATE, AND PREPARATION METHOD THEREFOR” (Fudan University, priority 2024, dated 2025).

How the values were obtained:
[1] = test system: HCC1806-luc cells; assay: HCC1806 intracranial model; assay type: in vivo, Balb/c nude mice; conditions: 5 mg/kg single dose via tail vein; compared to hIgG1-MMAE group
Method: An NCI-N87 intracranial model was established to evaluate 1-G07-LP5. NCI-N87-luc cells were resuspended in PBS and adjusted to a concentration of 1×10^8/mL. A microsyringe was used to draw 5 µL of the cell suspension (5×10^5 cells) for inoculation. Female Balb/c nude mice aged 6-7 weeks were anesthetized with Avertin and fixed on a brain stereotaxic instrument. Using the mouse's bregma as the center, the microsyringe needle was moved 2 mm to the right and 0.6 mm upward. After drilling through the skull with a triangular needle, the needle was inserted 4 mm downward, then withdrawn 1 mm, and the tumor cells were injected at a constant speed. […] 9 days later, D-luciferin (150 mg/kg) was injected intraperitoneally, and fluorescence images were acquired using a small animal fluorescence/CT in vivo imaging system to quantify the brain fluorescence signal intensity. Grouping was based on fluorescence signal intensity (Radiance (p/sec/cm^2/sr)) and mouse body weight. […] Fluorescence images were acquired every 1-2 weeks using the small animal fluorescence/CT in vivo imaging system to monitor brain fluorescence signal intensity (Radiance (p/sec/cm^2/sr)) and mouse body weight, and tumor growth curves were plotted.
An HCC1806 intracranial model was established to evaluate FD40-LP5. […] 7 days later, the mice were randomly grouped (n=4) based on fluorescence signal intensity and body weight. […]

[2] = Pharmacokinetic detection in mice (ELISA of conjugate in serum); assay type: in vivo, Balb/c mice; conditions: mouse, in vivo, iv, 1 mg/kg
Method: Serum Sample Collection: HER2-NDC 1 mg/kg 1-G07-GGFG-Dxd and 1 mg/kg 1-G07-LP5 were administered via tail vein injection to 8-week-old female Balb/c mice. Approximately 100 µL of blood was collected from the orbit at time points 0 min, 5 min, 30 min, 4 h, 8 h, 24 h, 48 h, 72 h, 96 h, 120 h, 168 h, and 192 h post-adminsteration. The blood was left at room temperature for 30 min, then placed at 4°C for 3-4 h, and centrifuged at 1500 rpm for 15 min to collect the upper serum. ELISA detection of antibody conjugate concentration: The anti-Dxd antibody (Abmax Biotechnology, Cat#05-0191-L, whose affinity for LP5 is similar to that for Dxd) was diluted to 2.5 µg/mL with coating buffer and coated onto ELISA plates, 100 µL/well. The plates were sealed and incubated at 4°C overnight. Unbound antigen was removed, and blocking buffer (3% BSA in PBS) was added, 200 µL/well, for blocking at room temperature for 2 h. After the blocking solution was removed, the 3-fold serially diluted test serum samples and 3-fold serially diluted standard samples (starting from 333.33 ng/mL) were added, 100 µL/well, and incubated at room temperature for 2 h. Unbound antibodies were removed, and HRP-labeled secondary antibody diluted 1:8000 was added, 100 µL/well, and incubated at room temperature for 1 h. After removing unbound secondary antibody, TMB substrate solution was added, 150 µL/well, for color development at room temperature in the dark for about 5 min. ELISA stop solution was added, 50 µL/well, to terminate the color reaction. The OD value at 450 nm was measured, and the drug concentration in the serum was analyzed and calculated. The drug concentrations in the serum at different time points were input into Phoenix software, and a non-compartmental model was used to analyze the drug concentration-time related parameters.
Similarly, TF-NDC 1 mg/kg FD40-GGFG-Dxd and 1 mg/kg FD40-LP5 were administered via tail vein injection to 8-week-old female Balb/c mice. Approximately 100 µL of blood was collected from the orbit at time points 0 min, 5 min, 30 min, 4 h, 8 h, 24 h, 48 h, 72 h, 96 h, 120 h, 168 h, and 192 h post-administeration, processed for detection and analysis.

[3] = test system: HCC1806 cells; assay: Triple-negative breast cancer (TNBC) HCC1806 model; assay type: in vivo, Balb/c nude mice; conditions: 10 mg/kg, 5 mg/kg, and 2.5 mg/kg, single dose
Method: Triple-negative breast cancer (TNBC) HCC1806 model: HCC1806 cells in the logarithmic growth phase were inoculated into the mammary fat pads of 6-week-old female Balb/c nude mice at a density of 3×10^6 cells per 200 µL of serum-free medium. When the tumor volume reached 200 mm^3, the animals were randomly grouped, with 10 tumors per group, receiving a single dose.

[4] = test system: NCI-H1373 cells; assay: Lung cancer NCI-H1373 in vivo model; parameters: species or system Balb/c nude mice; conditions: 10 mg/kg
Method: Lung cancer NCI-H1373 in vivo model: 5x10^6 NCI-H1373 cells were inoculated onto the backs of 6-week-old female Balb/c nude mice. On day 8, when the tumor volume reached ~200 mm^3, the animals were randomly grouped, with 10 tumors per group. Dosing was performed once weekly for a total of 2 doses (on days 8 and 15).

[5] = Exploratory safety assessment in cynomolgus monkeys; assay type: in vivo
Method: Two cynomolgus monkeys (one male and one female) were administered a single intravenous infusion of 10 mg/kg FD40-LP5, followed by continuous observation for 21 days. On day 22, a second intravenous infusion of 30 mg/kg FD40-LP5 was administered, followed by another 21 days of continuous observation (total 42 days).

[6] = either dose level (10 mg/kg, 30 mg/kg)

B1: FD40-LP5 (conjugate)
chain: QVQLVESGGGLVKPGGSLRLSCTASETISSTYIMGWHRQAPGKGRELVAVISGDGVTHYADFVKGRFTISRDNAKNTVYLQMNFLRAEDTAVYYCYAAGRWNHWGQGTMVTVSS[letters of human IgG1 Fc with C220S (EU numbers) not shown]
For B1, the “intracranial tumor growth (brain fluorescence signal)” value [1] was “completely inhibited tumor growth or caused partial regression”, the “mean AUC0-t” value [2] was 531.75 µg·h/mL and the “mean Cmax” value [2] was 16750 ng/mL. For the same molecule, the “mean MRTlast” value [2] was 49.12 h, the “mean T1/2” value [2] was 52.29 h and the tumor therapeutic effect [3] was “excellent or good tumor therapeutic effects”. For the same molecule, the “tumor suppression on day 32 (17 days after the last dose)” value ([4]; once weekly for 2 doses) was “maintained excellent tumor suppression effects”, the tumor growth ([4]; once weekly for 2 doses (days 8 and 15), compared to hIgG1-MMAE control group) was “significantly inhibited tumor growth” and the body weight loss ([5]; during the experiment period, especially at the high dose, slight and reversible) was 5-10%. The blood biochemical parameters [5, 6] was “no significant drug-related changes”, the blood coagulation parameters [5, 6] was “no significant drug-related changes” and the hematological parameters [5, 6] was “no significant drug-related changes”. The “feeding and body weight indicators” value ([5]; intravenous infusion 10 mg/kg, then 30 mg/kg on day 22) was “Slight and reversible fluctuations” and the “clinical status of the animals” value ([5]; intravenous infusion 10 mg/kg, then 30 mg/kg on day 22, either dose level) was “no significant drug-related changes”.
